# According to the supplement of paper PMC11417369:
# This is one part of the list.
# Tested on: PfAP2-HC AP2 domain (GST-tagged)
# Experiment: gcPBM binding intensity (ln(normalized median fluorescence intensity)); higher = stronger DNA binding
# Method in brief: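 GST-tagged P. falciparum DNA-binding domains, expressed in E. coli (about 25 μg on average), were applied for 1 h to an Agilent 4 × 180k array of primer-extended double-stranded 36-bp intergenic genomic probes plus negative controls. The binding buffer was 1× PBS with 1% milk, 0.2 mg/ml BSA, 0.5% salmon testes DNA and 0.03% Triton X-100. Bound protein was detected with Alexa488 anti-GST antibody and scanned at 488 nm. Binding intensity is the highest Masliner-normalised natural-log median intensity across replicate spots of either probe orientation.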
row,Sequence,gcPBM binding intensity (ln)
1,TTTTCATTTTTTCGTTGTACATAAATAATATATATT [XGTACX_site856],9.83
2,TTTTTTAAAAGATAATATTTTATTAATGTATTCTCA [GTGCAC_negctrl_site598],9.35
3,ATATATACATATAATTGTACTTGTGTTGTTTTTCTT [XGTACX_site1870],9.9
4,TTAACGCTTATTTTTTGTACTTATTTTATTTTAAAT [XGTACX_site3977],9.75
5,CAACATTAATATAAAGCACACATATATATAATATAT [CACACA_site8064],9.96
6,ACTCTATAATAAAATACACACAAGACTATCTAATAT [CACACA_site1796],9.92
7,TCTTTTTTTTTTTTTTTTTTTTTTTTTTTTTTTTTT [GTGCAC_negctrl_site18],9.12
8,ATTTTAATGACATATACACACAAAGGTTCATAACAA [CACACA_site5664],9.82
9,ATAAAACCAACATAGAGTACAGATCGACTATGTTTC [XGTACX_site4329],9.78
10,TTTTCTTTTTAAATTACACACACATATATATATGTA [CACACA_site9172],10.1
11,TGTAGATATTATATATGTACGCATATGAAATATATA [XGTACX_site1586],9.49
12,TAATTATATAAATATTGTACAAAAAAAATATATATA [XGTACX_site3137],9.66
13,AAAATATATAATATAACACACATATATTCTATATGG [CACACA_site4044],9.73
14,TTCAAAATATATATTTGTACATATAGGATCTTTTTC [XGTACX_site4500],9.54
15,GTAATATCAATATAAAGTACACACTATAGTATGTAT [XGTACX_site4714],9.87
16,TATATTCTTTTAAACAGTACACACACACATATATAT [XGTACX_site1701],11.1
17,AATATAAAAATATAAAAACACACGTAAAAAAATTTA [CACACA_site3399],9.82
18,AAAAAAATTAAAAATAAAGAAAAAAAAAAAAAAAAA [GTGCAC_negctrl_site401],8.88
19,AATATAAACCCAAACACACACATATATATATATATA [CACACA_site268],10.7
20,TTTTTTTTTTTGAGGAGGACACAAAAATATGCTACC [XGTACX_site756],9.32
21,TTTTATTTATAATATATACACACTAACATTATTTAT [CACACA_site1284],9.78
22,GAATATTTATCATGGGGTACCTTAAAAAAGGGAAAA [XGTACX_site298],9.55

row,Sequence,gcPBM binding intensity (ln)
1,ATATCTTAAATTATTTGTACATATATATATATATAT [XGTACX_site8034],9.81
2,AAAAAAAAAAAAAAAACACACATACACCCAGACACA [CACACA_site5807],11.3
3,ATACATATATAAATATGTACACACATATGTATGATC [XGTACX_site8219],9.98
4,GGAAACCCTCCCAAATGTACTTTTATAAAAAAATAC [XGTACX_site5502],9.48
5,TATACTCAGAAACACACACACACACCCAAAAAAAAA [CACACA_site4434],11.1
6,TTTGCCATAAAACACACACACATGTAAACCCCCTTT [CACACA_site1646],10.2
7,ATATAAGTACATATAACACACATATATTATAAGTAT [CACACA_site2647],9.83
8,GATATAAGGGTATGAAGTACATAAATATTTTATGCT [XGTACX_site1886],9.68
9,TTTTTATTTTTTGTCTGTACATATATAAATTTATTA [XGTACX_site1525],9.67
10,TATGCACGCGAACACACACACACAACTAAAAAATAA [CACACA_site7251],10.3
11,ATGTAAGTATAAAATGTGCGCATTGGGAATGAGGAC,10.7
12,ATATATATATATGTATGTATATATATATGTTTGATT [XGTACX_negctrl_site62],9.84
13,ATGAATTAACCTAATCGTACAATAAATATTATTATA [XGTACX_site596],9.54
14,ACTATTTAAAAATATGGTACACGAAATTCAAGAGAA [XGTACX_site5903],9.72
15,TTGTTTATGTGAGAAGTGCATTTTTTCGTTCATGTA,9.72
16,TTTTTTATTTTGTTGAAGCAATGAAAATGAATGAAA [TGCATGCA_negctrl_site495],9.35
17,ATATGTTTAAAAATATGTACGTATTATATATTCTAT [XGTACX_site1358],9.76
18,AAGTTTTATATTTATTAAATTTTTTTTTTTCCTTTT [XGTACX_negctrl_site184],9.2
19,TACGCGAAATGAATATGTACATATATGAGGGCATAT [XGTACX_site4293],9.75
20,TTTATATAAGGACATGCATGCTATTATTAAATATAT [TGCATGCA_site1011],9.72
21,TAATATATAAATATATGTACATAATAAATAGGATAT [XGTACX_site3661],9.98
22,ACTTCATAGGTTACCTGTACATATAAGGAGTTATCA [XGTACX_site4110],9.53

row,Sequence,gcPBM binding intensity (ln)
1,ATTTGAAAAAATACTACACACCATATTGTTAATTTT [CACACA_site3829],9.81
2,AAGATTCATATAAAAAGTACAAAAAGAAAAAAATAA [XGTACX_site6033],9.6
3,ATTAAATCATATGAATGTACGGATATATATATTTCC [XGTACX_site8650],9.57
4,TGATAAATTTTCACATGTACATATATAGAATAACCT [XGTACX_site2860],9.58
5,TCTAAAAAAATTATATCACACATTATAAAGCATATT [CACACA_site4885],9.43
6,TAATAAGTATCAAAATGTACATGACAAAAATAATTT [XGTACX_site8961],9.82
7,TATACACATAGACACACACACATACACGCACATACA [CACACA_site6908],10.7
8,ATAATATATGCAAAAACATGCACATAATATGTAAAA [TGCATGCA_site742],9.83
9,ATAATTTTATATAAATGTACATACATTTTTATTATA [XGTACX_site7368],9.64
10,ATATATATGTATATATGTACATATATGTATATATAT [XGTACX_site4772],9.95
11,ATTTGTATATAATATATATAATTTTTTTTTTTTGTT [XGTACX_negctrl_site425],9.42
12,ATAACTATATACATCTGTACATAATACATAGATAAA [XGTACX_site2795],9.61
13,ATATCTTCACTTATATGTACTTACATTTTTTTTTTT [XGTACX_site8696],9.85
14,ATACATACATATGTATGTACGTATGTATGTATGTAT [XGTACX_site3853],9.85
15,CAAATAAAAAAAGTAGCACACATGAATAAAATATAT [CACACA_site3130],10
16,TTATAAAAAGAACAATTAAAAAAAAATAAAATAAAA [XGTACX_negctrl_site398],9.38
17,AGAATAGTGGAAAACACACACGTTTGAGATATGGAC [CACACA_site4782],10
18,CACCCACCCACATACACACACATACACATATATATA [CACACA_site1722],10.3
19,TTTTTATGTTCTATATATATATATATATATATATAT [GTGCAC_negctrl_site306],9.9
20,GCACGTGTGATTAGATGTACATAACATGTATATGTC [XGTACX_site4632],9.67
21,CATAATATATATTGAGCATGCTACTATTGTTAGAAA [TGCATGCA_site740],9.81
22,ACATATAAGATATATACACACATATAAATACATTAA [CACACA_site7763],10

row,Sequence,gcPBM binding intensity (ln)
1,AAAAAAAAAAACTACACACATACAAATATTTATATA [CACACA_site2574],9.91
2,AAGAAAATAAATAATACACACAAGGATTTGTAAATA [CACACA_site690],10
3,CTTTTTTTTTAAAAATGTACACATTTTTGAAAATAC [XGTACX_site3127],9.51
4,TTTTTCTTTTTTTTTTCCTTTATCACATAAGAAAAA [CACACA_negctrl_site192],9.36
5,AAGATATGAGGGAATACACACATATATATATATATA [CACACA_site1581],9.76
6,AAAATGAAGAAGTGCACACATATATATATTTATATA [CACACA_site507],9.91
7,TTAATACACCATAAAAGTACATAATATGATATTTAA [XGTACX_site8561],9.57
8,ATATGTTTGATTTTTTTTTTTTTTTTTTTTATGTGT [CACACA_negctrl_site1001],9.61
9,AAAAAAAAAATTAAAAGTACAGAAAATAAATAAATA [XGTACX_site7470],9.55
10,AAAAAAGAAGACATCTAAGTAATAGTAACAATGTAT [CACACA_negctrl_site1660],9.75
11,GACATATTATTCATGTGTACATATTATATGTATATA [XGTACX_site3442],9.7
12,AAGAATTTAGAAGGCATGCACTTAAACATGCATATA,9.76
13,TATAAATATACACCCACACACATATATAAATAAATA [CACACA_site7717],10.8
14,TTTTTTTTTTTTTTTACACACATTTGAATAACTTTA [CACACA_site6810],9.54
15,TATATGGGATATATGTGTACATATAAAATATGTATC [XGTACX_site3365],9.65
16,CTTAATATGAATAAAACACACATATATAATTTGTAA [CACACA_site5120],9.66
17,AAAAGAATTAAAAAATGTACATATAATATATATATA [XGTACX_site6721],9.74
18,TTTTCCCTTACAGAAAAAAAAAAATTCCTAACCCCG [CACACA_negctrl_site650],9.44
19,ATATATTTTAGGAGAGTGCATTTAATATTATTTAAT [GTGCAC_site9444],9.46
20,TTATATATTTATAATCGTACAATAATTAACGTAAAA [XGTACX_site3206],9.46
21,CATATAATAAATAATACACACATATTGTAAATATAT [CACACA_site5734],9.99
22,GTAATGAACAAACACAAAAAAAAAAAAAAAATAATA [TGCATGCA_negctrl_site344],9.66
